Patent US7820623B2 (priority 2006, dated 2010)
For some of these results: Not every detail of the peptide structures is certain; ends, links or a residue may be inferred. Some entries share one result that the patent states for a list of compounds. Bridge positions count the residues as written; N and C are the ends. Peptide text beside a SMILES is read from it.

Assays:
[1] = test system: thapsigargin-induced IL-2 production in human whole blood; details: read-out: Analogue Activity (IC50) WB/IL-2
[2] = test system: thapsigargin-induced IFN-g production in human whole blood; assay type: cell-based; details: read-out: Analogue Activity (IC50) WB/IFNg
[3] = test system: adoptive transfer EAE model of multiple sclerosis; details: rat, in vivo, sc

| Compound | IC50 [1] [nM] | IC50 [2] [nM] | EAE clinical severity score (peak / end of study) [3] |
| --- | --- | --- | --- |
| CC[C@H](C)[C@@H]1NC(=O)[C@H](CCCCN)NC(=O)[C@@H](NC(=O)[C@H](CCCCN)NC(=O)[C@@H](NC(=O)[C@H](CC(N)=O)NC(=O)[C@@H](NC(=O)[C@@H](NC(=O)[C@@H](NC(=O)CN)C(C)C)[C@@H](C)CC)[C@@H](C)CC)C(C)C)CSSC[C@@H]2NC(=O)[C@H](CCCCN)NC(=O)[C@H](CCCNC(=N)N)NC(=O)[C@H](Cc3ccccc3)NC(=O)[C@H](CCCNC(=N)N)NC(=O)[C@H](CCSC)NC(=O)CNC(=O)[C@H](C)NC(=O)[C@H](CCCCN)NC(=O)[C@H](CCCCN)NC(=O)[C@@H]3CSSC[C@@H](C(=O)N[C@H](C(=O)N4CCC[C@H]4C(=O)N[C@@H](CCCCN)C(=O)O)[C@@H](C)O)NC(=O)[C@H](Cc4c[nH]cn4)NC(=O)[C@H](CSSC[C@H](NC(=O)[C@H](CCC(N)=O)NC(=O)[C@H](CCCNC(=N)N)NC(=O)[C@H](CO)NC1=O)C(=O)N[C@@H](CC(C)C)C(=O)N[C@@H](CCC(=O)O)C(=O)N1CCC[C@H]1C(=O)N3)NC(=O)[C@H](CCCCN)NC(=O)CNC(=O)[C@H](CC(N)=O)NC(=O)[C@H](CCSC)NC2=O [G26R] (H-GVIINVKCKISRQCLEPCKKAGMRFRKCMNGKCHCTPK-OH; disulfide 8-28, 14-33, 18-35) | 100 | 100 |  |
| CC[C@H](C)[C@@H]1NC(=O)[C@H](CCCCN)NC(=O)[C@@H](NC(=O)[C@H](CCCCN)NC(=O)[C@@H](NC(=O)[C@H](CC(N)=O)NC(=O)[C@@H](NC(=O)[C@@H](NC(=O)[C@@H](NC(=O)CN)C(C)C)[C@@H](C)CC)[C@@H](C)CC)C(C)C)CSSC[C@@H]2NC(=O)[C@H](CCCCN)NC(=O)CNC(=O)[C@H](Cc3ccccc3)NC(=O)[C@H](CCCNC(=N)N)NC(=O)[C@H](CCSC)NC(=O)[C@H](C)NC(=O)[C@H](C)NC(=O)[C@H](CCCCN)NC(=O)[C@H](CCCCN)NC(=O)[C@@H]3CSSC[C@@H](C(=O)N[C@H](C(=O)N4CCC[C@H]4C(=O)N[C@@H](CCCCN)C(=O)O)[C@@H](C)O)NC(=O)[C@H](Cc4c[nH]cn4)NC(=O)[C@H](CSSC[C@H](NC(=O)[C@H](CCC(N)=O)NC(=O)[C@H](CCCNC(=N)N)NC(=O)[C@H](CO)NC1=O)C(=O)N[C@@H](CC(C)C)C(=O)N[C@@H](CCC(=O)O)C(=O)N1CCC[C@H]1C(=O)N3)NC(=O)[C@H](CCCCN)NC(=O)CNC(=O)[C@H](CC(N)=O)NC(=O)[C@H](CCSC)NC2=O [G22A] (H-GVIINVKCKISRQCLEPCKKAAMRFGKCMNGKCHCTPK-OH; disulfide 8-28, 14-33, 18-35) | 7.09 |  |  |
| CC[C@H](C)[C@@H]1NC(=O)[C@H](CCCCN)NC(=O)[C@@H](NC(=O)[C@H](CCCCN)NC(=O)[C@@H](NC(=O)[C@H](CC(N)=O)NC(=O)[C@@H](NC(=O)[C@@H](NC(=O)[C@@H](NC(=O)CN)C(C)C)[C@@H](C)CC)[C@@H](C)CC)C(C)C)CSSC[C@@H]2NC(=O)[C@H](CCCCN)NC(=O)CNC(=O)[C@H](Cc3ccccc3)NC(=O)[C@H](CCCNC(=N)N)NC(=O)[C@H](CCSC)NC(=O)CNC(=O)[C@H](C)NC(=O)[C@H](CCCCN)NC(=O)[C@H](CCCCN)NC(=O)[C@@H]3CSSC[C@@H](C(=O)N[C@H](C(=O)N4CCC[C@H]4C(=O)N[C@@H](CCCCN)C(=O)O)[C@@H](C)O)NC(=O)[C@H](Cc4c[nH]cn4)NC(=O)[C@H](CSSC[C@H](NC(=O)[C@H](CCC(N)=O)NC(=O)[C@H](CCCNC(=N)N)NC(=O)[C@H](CCC(=O)O)NC1=O)C(=O)N[C@@H](CC(C)C)C(=O)N[C@@H](CCC(=O)O)C(=O)N1CCC[C@H]1C(=O)N3)NC(=O)[C@H](CCCCN)NC(=O)CNC(=O)[C@H](CC(N)=O)NC(=O)[C@H](CCSC)NC2=O [S11E] (H-GVIINVKCKIERQCLEPCKKAGMRFGKCMNGKCHCTPK-OH; disulfide 8-28, 14-33, 18-35) | 39.9 | 16.9 |  |
| CC[C@H](C)[C@@H]1NC(=O)[C@@H](NC(=O)[C@H](CO)NC(=O)[C@@H](N)CCCNC(=N)N)CSSC[C@@H](C(=O)O)NC(=O)[C@H]([C@@H](C)O)NC(=O)CNC(=O)[C@@H]2CSSC[C@@H]3NC(=O)[C@H](CCC(N)=O)NC(=O)[C@H](Cc4ccccc4)NC(=O)[C@H](C)NC(=O)[C@H]([C@@H](C)O)NC(=O)[C@H](CSSC[C@H](NC(=O)[C@H](Cc4ccccc4)NC(=O)[C@H](CO)NC(=O)[C@H](CC(C)C)NC(=O)[C@H](CCCNC(=N)N)NC(=O)[C@H](Cc4ccc(O)cc4)NC(=O)[C@H](CCCCN)NC(=O)[C@H](CCSC)NC(=O)[C@H](CO)NC(=O)[C@H](Cc4c[nH]cn4)NC(=O)[C@H](CCCCN)NC3=O)C(=O)N[C@@H](CCCNC(=N)N)C(=O)N[C@@H](CCCCN)C(=O)N[C@@H]([C@@H](C)O)C(=O)N2)NC(=O)[C@H](CCCNC(=N)N)NC(=O)[C@H](CO)NC(=O)[C@H](CCCCN)NC(=O)[C@@H]2CCCN2C(=O)[C@H]([C@@H](C)CC)NC(=O)[C@H]([C@@H](C)O)NC(=O)[C@H](CC(=O)O)NC1=O [ShK] |  |  | ≥ 5.5 |
| CC[C@H](C)[C@@H]1NC(=O)[C@H](CCCCN)NC(=O)[C@@H](NC(=O)[C@H](CCCCN)NC(=O)[C@@H](NC(=O)[C@H](CC(N)=O)NC(=O)[C@@H](NC(=O)[C@@H](NC(=O)[C@@H](NC(=O)CN)C(C)C)[C@@H](C)CC)[C@@H](C)CC)C(C)C)CSSC[C@@H]2NC(=O)[C@H](CCCCN)NC(=O)CNC(=O)[C@H](CCC(=O)O)NC(=O)[C@H](CCCNC(=N)N)NC(=O)[C@H](CCSC)NC(=O)CNC(=O)[C@H](C)NC(=O)[C@H](CCCCN)NC(=O)[C@H](CCCCN)NC(=O)[C@@H]3CSSC[C@@H](C(=O)N[C@H](C(=O)N4CCC[C@H]4C(=O)N[C@@H](CCCCN)C(=O)O)[C@@H](C)O)NC(=O)[C@H](Cc4c[nH]cn4)NC(=O)[C@H](CSSC[C@H](NC(=O)[C@H](CCC(N)=O)NC(=O)[C@H](CCCNC(=N)N)NC(=O)[C@H](CO)NC1=O)C(=O)N[C@@H](CC(C)C)C(=O)N[C@@H](CCC(=O)O)C(=O)N1CCC[C@H]1C(=O)N3)NC(=O)[C@H](CCCCN)NC(=O)CNC(=O)[C@H](CC(N)=O)NC(=O)[C@H](CCSC)NC2=O [F25E] (H-GVIINVKCKISRQCLEPCKKAGMREGKCMNGKCHCTPK-OH; disulfide 8-28, 14-33, 18-35) | 100 | 100 |  |
| CC[C@H](C)[C@@H]1NC(=O)[C@H](CCCCN)NC(=O)[C@@H](NC(=O)[C@H](CCCCN)NC(=O)[C@@H](NC(=O)[C@H](CC(N)=O)NC(=O)[C@@H](NC(=O)[C@@H](NC(=O)[C@@H](NC(=O)CN)C(C)C)[C@@H](C)CC)[C@@H](C)CC)C(C)C)CSSC[C@@H]2NC(=O)[C@H](CCCCN)NC(=O)[C@H](CCC(=O)O)NC(=O)[C@H](Cc3ccccc3)NC(=O)[C@H](CCCNC(=N)N)NC(=O)[C@H](CCSC)NC(=O)CNC(=O)[C@H](C)NC(=O)[C@H](CCCCN)NC(=O)[C@H](CCCCN)NC(=O)[C@@H]3CSSC[C@@H](C(=O)N[C@H](C(=O)N4CCC[C@H]4C(=O)N[C@@H](CCCCN)C(=O)O)[C@@H](C)O)NC(=O)[C@H](Cc4c[nH]cn4)NC(=O)[C@H](CSSC[C@H](NC(=O)[C@H](CCC(N)=O)NC(=O)[C@H](CCCNC(=N)N)NC(=O)[C@H](CO)NC1=O)C(=O)N[C@@H](CC(C)C)C(=O)N[C@@H](CCC(=O)O)C(=O)N1CCC[C@H]1C(=O)N3)NC(=O)[C@H](CCCCN)NC(=O)CNC(=O)[C@H](CC(N)=O)NC(=O)[C@H](CCSC)NC2=O [G26E] (H-GVIINVKCKISRQCLEPCKKAGMRFEKCMNGKCHCTPK-OH; disulfide 8-28, 14-33, 18-35) | 100 | 100 |  |
